Survival data for 58 compounds are collected here from PubChem BioAssay AID463173 (ICCB-Longwood Screening Facility, Harvard Medical School, 2010).

Structures are written as SMILES. About 4,300 (8.3%) of roughly 52,000 compounds were called active. Rule as the data show it: active = survival mostly below about 52% (no sharp cut-off); inactive = mostly above about 56%. This is one part of the list.

The subject of the experiment is DeltatarO mutant. Nature of the experiment: S. aureus survival, RN4220 and DeltatarO strains – OD600, teichoic acid synthesis inhibitors, primary screen (AID 463173). To be noted: S. aureus RN4220 wild type/DeltatarO growth, OD600, 18 h, hits give low values, screened at 18.75 µg/mL (by protocol).
As for `Cn1cc(-c2cc3n(n2)CCC(=O)N3CC(=O)NCc2ccc(Cl)cc2)c2ccccc21`, the survival was inactive: 88%. The figure for `Cc1c(CC(=O)NCCc2ccccc2F)c(=O)oc2cc(O)c(Cl)cc12` is inactive: 59%; for `O=C(COc1ccccc1[N+](=O)[O-])N1CCC(c2nc3ccccc3o2)CC1` it is inactive: 79%. As to `CC(C)S(=O)(=O)c1oc(-c2cccs2)nc1S(=O)(=O)c1ccc(F)cc1`, the survival was active: 9%.

For `CC(C)(C)NC(=O)CSc1nncn1NCc1ccccc1`, the survival was inactive: 75%.

On to `O=C(O)c1ccc(S(=O)(=O)c2ccc3c(c2)C(=O)N(C2CCCCC2)C3=O)cc1`, for which the survival is inactive: 97%. For the compound `Cc1ccc(NC(=O)c2c(C)oc3ccc(O)c(CN4CCCCCC4)c23)cc1`, the survival was inactive: 95%. As for `COC(=O)c1ccc(NC(=O)Cn2c(=O)nc(-c3ccccc3)c3ccccc32)cc1`, the survival is inactive: 80%. Next, `CCOC(=O)c1ccc(NC(=O)Cn2ncc3c(C)n(Cc4ccccc4F)c(C)c3c2=O)cc1`: inactive: 66%; `CC(C)c1ccc(NC(=O)Nc2csc3c2CCCC3)cc1`: active: 13%; `Cc1ccc2c(=O)cc(C(=O)Nc3c(C(=O)Nc4cccc(Cl)c4)oc4ccccc34)oc2c1`: active: 36%. Regarding `COc1ccc(NC(=O)c2c(NCc3cccs3)sc3c2CCCC3)cc1`, the survival was inactive: 95%. Next, `CCCCN(C)CC(O)Cn1cc(/C=C/C(=O)c2ccc(C)cc2)c2ccccc21` (stereo not drawn): active: 6%; `CCc1ccc2oc(-c3ccc(N)cc3)nc2c1`: active: 34%; `Cc1ccc(S(=O)(=O)C(CNC(=O)Cc2ccc(Cl)cc2)c2cccs2)cc1` (stereo not drawn): inactive: 85%. With `CC(C)c1c(O)nc(SCCN2CCOCC2)[nH]c1=O`, the survival was inactive: 92%. Regarding `Cc1cccc(Cn2c(=O)n(Cc3ccc4c(c3)OCO4)c(=O)c3oc4ccccc4c32)c1`, the survival was inactive: 77%.

Regarding `CCc1ccccc1NC(=O)c1cc2nc(-c3ccc(OC)c(OC)c3)cc(C(F)(F)F)n2n1`, the survival was active: 52%. For `CCOc1ccc(CNC(=O)c2ccc3c(c2)nnn3C2CCCC2)cc1`, the survival is inactive: 88%. The figure for `COc1ccccc1N1CCN(C(=O)Nc2cn(CC(C)C)c(=O)c3ccccc23)CC1` is inactive: 76%. For the compound `CCOCCCNC(=O)c1c(NC(=O)c2cc(=O)c3ccccc3o2)sc2c1CCC2`, the survival was inactive: 48%. Consider `O=c1oc2c(CN3CCCC3)c(O)ccc2cc1-c1ccccc1`, for which the survival is inactive: 125%. Next, `CC(C)C(=O)Nc1cccc(C(=O)Nc2nnc(CC(C)(C)C)s2)c1`: inactive: 67%; `CCOC(=O)c1c(C)oc2ncnc(Nc3cc(Cl)ccc3OC)c12`: inactive: 70%; `Cc1ccc2nc(COc3ccccc3NC(=O)COc3ccccc3Cl)cc(=O)n2c1`: inactive: 102%. Turning to `Cc1ccc(CNC(=O)C2CCN(S(=O)(=O)c3c(C)noc3/C=C/c3c(C)cc(C)cc3C)CC2)cc1`, the survival was inactive: 75%. With `CSc1ncc(C(=O)NCc2ccc(C)cc2)c(-c2ccccc2)n1`, the survival is active: 0%. On to `O=C(c1ccc(Br)s1)N(Cc1cccnc1)c1nc2ccc(F)cc2s1`, for which the survival was inactive: 83%. As to `CCOc1ccccc1NC(=O)CN1C(=O)COc2ccc(S(=O)(=O)N3CCCCC3)cc21`, the survival was inactive: 91%. As for `Cc1ccc2c(c1)c1c(n2CC(O)CN2CCCCC2)C(=O)CCC1` (stereo not drawn), the survival is inactive: 78%. `Cc1ccc(N2C(=O)CSC23C(=O)N(CC(=O)NC2CCCCC2)c2ccccc23)cc1C` (stereo not drawn): the survival is inactive: 94%.

`Cn1cc(C(c2ccccc2)c2ccc(Cl)s2)c2ccccc21` (stereo not drawn): the survival is inactive: 102%. Consider `CCOC(=O)Cn1c(=O)n(-c2ccccc2OC)c2nc(-c3ccccc3F)nc(C(N)=O)c21`, for which the survival is inactive: 72%. Regarding `CCc1ccc(-c2cn3c(n2)SCC3)cc1`, the survival is inactive: 98%. On to `Brc1ccc(NCc2ccco2)cc1`, for which the survival is inactive: 96%. As for `CCc1nn(CC(=O)NCc2ccc(OC)c(OC)c2)c(=O)c2cc3sc(C)cc3n12`, the survival is inactive: 71%.

`O=C1CSC(=O)N1Cc1cc2c(cc1Cl)OCO2`: the survival is inactive: 70%. For `CCOC(=O)c1c(NC(=O)c2cc3nc(-c4ccccc4)cc(C(F)(F)F)n3n2)sc2c1CCC(C)C2` (stereo not drawn), the survival was inactive: 55%. In the case of `CCOc1ccc(C(=O)Nc2ccccc2OCc2cc(=O)n3ccccc3n2)cc1`, the survival is inactive: 119%. `Cc1cc(C(=O)Nc2cccc(F)c2)c2c(C)nn(-c3cccc(Cl)c3C)c2n1`: the survival was inactive: 87%. With `Cn1c(CN2CCOCC2)nnc1SCC(N)=O`, the survival is inactive: 95%. For `CCc1c(C)c2ccc(O)c(CN3CCN(c4ccc(OC)cc4)CC3)c2oc1=O`, the survival was inactive: 55%. Next, `CC1CCC(Nc2nnnn2-c2ccccc2)CC1` (stereo not drawn): inactive: 87%.

For the compound `Cc1ccccc1CNC(=O)c1ccc(CSc2nc3cccnc3n2Cc2ccccc2)cc1`, the survival is inactive: 55%. `O=C(CN1CCC(C(=O)c2ccc(F)cc2)CC1)Nc1ccccc1`: the survival is inactive: 83%.

As to `COC(=O)c1ccc(Cn2c(SCc3ccccc3)nc3ccncc32)cc1`, the survival was active: 45%. Consider `Cc1ccc(-c2nc(CS(=O)(=O)CC(=O)NCc3ccc(Cl)cc3)c(C)o2)cc1`, for which the survival is inactive: 105%. Turning to `CCc1ccc(-n2c(SCc3ccccc3C)nc3[nH]ncc3c2=O)cc1`, the survival is inactive: 62%. Consider `CCc1ccc(-c2nn(CC(=O)NCc3ccccc3)c3c2cnc2ccc(C)cc23)cc1`, for which the survival was inactive: 69%. The figure for `CC(C)c1ccc(NC(=O)CCS(=O)(=O)c2cccc3nonc23)cc1` is inactive: 87%; for `CCCN(C(=O)COc1cc(=O)n(CC)c2ccccc12)c1ccc(C(C)C)cc1` it is active: -22%; for `CCc1ccc(-n2nc(C)c3c(C(=O)Nc4cc(C)c(Cl)cc4OC)cc(C)nc32)cc1` it is inactive: 85%. Regarding `CCOc1ccccc1NC(=O)Cn1c(=O)n(-c2ccc(F)cc2)c(=O)c2c3c(sc21)CN(C(C)=O)CC3`, the survival was inactive: 122%. Next, `Cc1ccc(CCNC(=O)c2ccc(CNS(=O)(=O)c3ccccc3)cc2)cc1`: inactive: 80%; `O=C(CN1CCSc2ccccc21)N1CCCCC1`: inactive: 78%. Next, `Cc1ccc2cc3c(N)c(-c4nnc(-c5ccccc5)o4)sc3nc2c1`: inactive: 94%; `O=C(Nc1ccc(C(F)(F)F)cc1)C1CCN(c2cnccn2)CC1`: inactive: 73%; `Cc1ccc(CCNC(=O)c2cc(C)nc3c2c(C)nn3-c2ccc(C)cc2)cc1`: active: 25%.
